Reference: ChEMBL document CHEMBL4888484, “Replenishing the malaria drug discovery pipeline: Screening and hit evaluation of the MMV Hit Generation Library 1 (HGL1) against asexual blood stage Plasmodium falciparum ,using a nano luciferase reporter read-out” (2022)
In all, about 150,000 compounds went through this assay and about 540 (0.36%) showed an effect of 50% or more. This is one part of the list.

system: Plasmodium falciparum; experiment: Primary screen in NF54 nanoGlo assay, in single point, at 2uM, 72h; a lower Z score goes with more inhibition; assay type: functional, Erythrocyte; details: timepoint 72 hour

Compound	% Inhibition [%]	Z score
CCCc1cnc(C)nc1N1C[C@H](C(=O)O)[C@@H](C2CC2)C1	-15	1.7
COCCn1ccnc1CN1CCO[C@H](C(=O)N(C)C)C1	-6	1.17
CCOc1ccccc1CCNc1nnc(CC)o1	-9	1.34
O=C(Cn1ncccc1=O)NC(c1ccccc1)c1ccccc1	-5	0.63
CN1CC(NC2CCc3c(F)ccc(Br)c32)CCC1=O (stereo not given)	9	-0.96
COC(=O)CN(CC(=O)N1CC(=O)Nc2ccccc21)C1CCCC1	-17	1.7
N[C@H]1c2ccccc2C[C@@H]1Nc1nnc(C2CCC2)o1	-19	1.73
N[C@H]1CCC[C@@H](C(=O)N2CCC3(CC2)Cc2cccc(c2)Oc2cccc(c2)CCNC3=O)C1	2	-0.3
CC(C)(C)C(=O)N1CCC(C2CC2)CC1	-6	1
c1cc(-c2csc(C3CCN(c4cnccn4)CC3)n2)ccn1	8	-0.99
O=C(Cc1ccc(F)cc1F)N1CCn2nccc2C1	-7	1.05
Cc1nc[nH]c1CN1CCCC[C@@H]1CCc1cccs1	-6	1.18
O=C1NCCCC[C@@H]1N1CCN(S(=O)(=O)c2ccccc2)CC1	-3	0.43
C[C@H]1CCN(Cc2cccc3ncccc23)[C@@H](CO)C1	-10	1.64
CN1CCN(C(=O)CC[C@@H]2NC(=O)NC2=O)[C@@H](c2ccccc2)C1	-12	1.49
CCCn1nccc1C1CCN(C(=O)CNS(=O)(=O)C2CC2)CC1	-13	2.39
CC(C)c1ccc(OCC2c3ccsc3CCN2C(=O)CN(CC2CCCO2)C(=O)c2ccc(F)cc2)cc1 (stereo not given)	-7	1.05
CCC(=O)N1CCC[C@@](NCc2ccc(Cl)cc2)(c2nnnn2C2CCCC2)C1	7	-0.92
COc1ccc(Oc2c(CN(CC(C)C)C(=O)c3ccccc3Cl)c(-c3ccccc3)nn2C)cc1	-12	1.62
CC(=O)N1CCCc2cc(C[C@H]3CCCO3)ccc21	-10	2.09
O=C1CN(Cc2ncnn2CCF)[C@H](c2ccccc2)CN1	5	-0.93
COc1ccc(-c2cnc3ncnn3c2)c(-n2cccn2)c1	-8	1.18

Compound	% Inhibition [%]	Z score
COc1cc(N2CCO[C@@H](C)C2)ncn1	-3	0.28
Cc1cc(C(=O)N(CCC(=O)NCCCN2CCOCC2)CCC(C)C)c(C)o1	-19	2.31
CCc1ncoc1C(=O)Nc1cnc(CC2CC2)nc1	4	-0.72
Cc1nc(C)c(CCNC(=O)NCC[C@H]2CCCO2)s1	8	-1
O=C(N[C@H]1CCN(Cc2cc3ccccc3o2)C[C@@H]1O)c1cnccn1	4	-0.37
CN(c1ccccc1F)S(=O)(=O)c1cccc(C(=O)NC2CC2)c1	-10	1.47
O=C(NCc1nnc2cc(C(F)(F)F)ccn12)c1cc[nH]c(=O)c1	19	-2.37
O=C(N[C@H]1CCc2ncnn2C1)c1cncc(-c2ccc(Cl)cc2)c1	-1	0.09
CNc1nc(C)cc(N[C@H]2CC(C)(C)Cc3nc(C(C)(C)C)ncc32)n1	3	-0.44
O=C(CCc1ccsc1)NC1CCCC1	-9	0.82
CCOCCCC(=O)NCC1CCCC1NC(=O)CCCOCC (stereo not given)	-12	1.5
CC[C@@H](C(=O)OC(C)(C)C)N1CCN(S(=O)(=O)CC)CC1	-10	1.47
c1ccc(-c2noc(CN3CC[C@H](c4ccnc(-c5ccncc5)c4)C3)n2)cc1	-19	2.43
CC(C(=O)N1C(C)COCC1C)c1cccs1 (stereo not given)	-17	3.16
CCOCCOc1nc(-c2ccc(C(F)(F)F)cc2)n(-c2cccc(NC(=O)c3ccc(F)c(C)c3)c2)n1	-17	1.89
COc1nc(O)cc(C(=O)N2CCN(c3cccc(C(F)(F)F)c3)CC2)n1	-9	1.68
NC(=O)CN1CCc2onc(-c3ccc4c(c3)OCO4)c2C1	-11	1.23
Cn1nc2n(c1=O)CCN(C(=O)Cc1ccccc1F)CC2	-4	0.52
CC(C)(C(=O)O)N1CCN(c2cc(N3CCCC3)ncn2)CC1	-8	1.28
CCOc1ncccc1CNC(=O)c1cc(C)n(-c2ccc3c(c2)OCCO3)c1C	6	-1.09
CCNC(=O)C1CN(c2nc(C3CC3)nc3c2CCC3)C1	-3	0.37
C[C@@H](c1ncc(C(C)(C)C)o1)N1CCN(c2ccc(=O)[nH]n2)CC1	-16	1.8

Compound	% Inhibition [%]	Z score
CN(CCNC(=O)C(F)(F)[C@H](O)c1ccccc1)C1CC1	-2	0.24
NC(=O)[C@@H]1CC[C@H](C(=O)N2CCCCC23CCOC3)C1 (stereo not given in full)	-15	1.9
Cc1nc(CC(=O)NCc2sccc2C)cs1	3	-0.57
CCc1cc(O)nc(CN(C)Cc2cccnc2)n1	0	0
CC(C)(C)OC(=O)NC1CCC2(CC1)CNCCO2 (stereo not given)	-7	0.87
CC(C)c1ccc(-c2nc(NCCN3CCCC3)nc3nn(-c4ccc(F)cc4)c(N)c23)cc1	-22	2.13
Cc1nn(C)c(C)c1CCC(=O)N1CCC(C)CC1c1ccco1 (stereo not given)	-10	1.36
CCc1nc(C)c(C(=O)NCc2cccnc2Oc2ccc(F)cc2F)o1	-2	0.32
CC(C)c1cc(C(=O)N2CC3CCC2C3)on1 (stereo not given)	31	-3.45
O=C(Cc1ccsc1)N(Cc1ccccc1)[C@H]1CCS(=O)(=O)C1	-7	0.66
CCc1ccc(O)c(NC(=O)C(C)(C)C#N)c1	13	-1.79
CC1OCCC1C(=O)Nc1nc(-c2cnn(C)c2)ns1 (stereo not given)	-3	0.53
CCn1nncc1C(=O)N[C@H]1COc2c1ccc(Cl)c2Cl	-16	2.16
O=C(CCOc1ccccc1)N[C@H]1CC(=O)N(Cc2cccc(F)c2)C1	-7	0.92
Cc1cnccc1NCCNCc1ccnc(C(C)C)n1	-15	1.39
COc1ccc(C(=O)Cc2ccccn2)cc1	-1	0.11
O=C(c1cn(C[C@H]2CCCO2)nn1)N(CCO)Cc1cccs1	-1	0.09
CCCCn1c(N)c(N(CC)C(=O)[C@H]2CC(=O)N(c3cccc(C(F)(F)F)c3)C2)c(=O)[nH]c1=O	-1	0.09
Cc1ccc(C(=O)Nc2onc(C)c2-c2ccccc2)cc1NC(=O)[C@@H]1CCCO1	-13	1.93
CC(C)NC(=O)N1CCC[C@H]1C(=O)NC1CCCOc2cc(F)ccc21 (stereo not given in full)	0	0.09
Cc1ccc2c(C(=O)NC3CC3)cc(NC(=O)C(C)C)cc2n1	-19	2.7
c1cc(-c2csc(N3CCOCC3)n2)cc(-n2cnnn2)c1	-10	1.95

Compound	% Inhibition [%]	Z score
Cn1nc2cc(Br)ccc2c1C(=O)N1C2C=CCC1CC2 (stereo not given)	2	-0.28
CCc1cn[nH]c1[C@H]1CCCN(C(=O)c2c[nH]c(=O)[nH]2)C1	-6	0.8
O=C(CCn1cnnn1)Nc1ccccc1C(=O)n1cnc2ccccc21	-9	1.73
COCc1nocc1C(=O)N(Cc1ccccc1Br)CC(C)C	-8	1.27
CS(=O)(=O)NCCC(=O)NC(c1cccs1)[C@H]1C[C@@H](O)C1 (stereo not given in full)	-19	1.92
Cn1cc(NC(=O)N2CCc3ccc(F)c(F)c3C2)c(C2CC2)n1	3	-0.41
Cc1noc([C@H]2CCCN(C(=O)C(=O)Nc3cnn(-c4ccncc4)c3)C2)n1	5	-0.59
CS(=O)(=O)c1ccc2c(c1)CCCN2C(=O)[C@H]1CC(=O)N(c2ccccc2)C1	-7	1.29
CC[C@@H]1C[C@H]1NC(=O)NCc1nc2c(C)cccc2[nH]1	-10	1.6
CC(C)(CNC(=O)N1CCC[C@H]1C(C)(C)O)c1ccncc1	-11	1.5
CCc1nn(C[C@H](O)c2ccc(C(C)C)cc2)c(=O)c(C#N)c1CC	6	-0.86
C[C@H]1CCCN(c2ccc(C(N)=O)cc2NC(=O)c2cnoc2C2CC2)C1	-7	1.5
O=S(=O)(NCc1ccccc1N1CCC(CO)CC1)c1cccs1	-9	1.24
Cc1ccc(-n2nccc2NC(=O)[C@@H]2CCCc3ccccc32)nn1	-14	1.76
COc1ccccc1CNC(=O)c1ccccc1N1C(=O)[C@@H]2Cc3c([nH]c4ccccc34)C(c3cccc(Cl)c3)N2C1=O (stereo not given in full)	-16	1.39
CC[C@H](C)n1ncc(NC(=O)Nc2ccc(O)c(Cl)c2)c1C	-3	0.31
O=C(Cc1cccs1)N1CCC(Nc2cccnc2)CC1	-10	1.77
Cc1ccc(NC(=O)c2c(C)nc3sc(C(=O)NCc4ccccc4)c(N)c3c2-c2cccs2)c(C)c1	61	-9.57
COC(=O)c1cc(NCC(=O)Nc2ccc(C(=O)Nc3ccc(OC)cc3)cc2)cc(C(=O)OC)c1	2	-0.19
